{
  "source": "the BET-seq Pho4 binding data (Le et al. 2018)",
  "note": "Some of the results follow. These are noisy estimates, calculated here from bound and input reads.",
  "data": [
    {"target": "T1, Pho4 (S. cerevisiae) (UniProt P07270)", "T1 sequence": "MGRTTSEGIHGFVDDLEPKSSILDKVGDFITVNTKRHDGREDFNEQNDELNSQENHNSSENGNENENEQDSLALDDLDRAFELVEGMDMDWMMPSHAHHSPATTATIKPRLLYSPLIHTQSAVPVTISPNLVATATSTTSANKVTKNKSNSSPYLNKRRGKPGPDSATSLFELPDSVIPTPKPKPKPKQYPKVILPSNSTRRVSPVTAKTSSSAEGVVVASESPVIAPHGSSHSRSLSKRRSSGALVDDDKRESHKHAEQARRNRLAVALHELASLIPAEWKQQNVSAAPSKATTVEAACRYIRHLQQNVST", "experiment": "relative binding free energy (BET-seq); higher = weaker binding", "details": "reference: library average", "units": {"relative binding free energy": "kcal/mol"}, "values": [
      {"sequence": "GGGTGCACGTGAGGGG", "relative binding free energy": 0.23},
      {"sequence": "TTCAACACGTGTTTAG", "relative binding free energy": 0.02},
      {"sequence": "TATGGCACGTGGTTGC", "relative binding free energy": -0.16},
      {"sequence": "TTGGTCACGTGGGAAC", "relative binding free energy": 0.11},
      {"sequence": "GGCGACACGTGGTGTG", "relative binding free energy": 0.02},
      {"sequence": "TGGCGCACGTGTTCGT", "relative binding free energy": 0.01},
      {"sequence": "ATCGGCACGTGTGGGT", "relative binding free energy": -0.01},
      {"sequence": "GTCGGCACGTGCGGAT", "relative binding free energy": 0.02},
      {"sequence": "ATGGGCACGTGGGTTT", "relative binding free energy": -0.12},
      {"sequence": "TGGAGCACGTGGTGGC", "relative binding free energy": -0.03},
      {"sequence": "GGGTCCACGTGGTGTT", "relative binding free energy": 0},
      {"sequence": "TTTGCCACGTGTAGGG", "relative binding free energy": 0},
      {"sequence": "TTCAGCACGTGCTGTG", "relative binding free energy": -0.02},
      {"sequence": "GGAATCACGTGATATG", "relative binding free energy": 0.27},
      {"sequence": "TGGATCACGTGAGAGT", "relative binding free energy": 0.45},
      {"sequence": "CTGGGCACGTGTTCGT", "relative binding free energy": -0.01},
      {"sequence": "AGGTTCACGTGGGGTG", "relative binding free energy": 0.23},
      {"sequence": "GCGGTCACGTGTGTGC", "relative binding free energy": 0.06},
      {"sequence": "GGTGGCACGTGACTCG", "relative binding free energy": 0.11},
      {"sequence": "TTTACCACGTGTAAGT", "relative binding free energy": 0.05},
      {"sequence": "TGGAGCACGTGGTTAA", "relative binding free energy": -0.11},
      {"sequence": "TTGTACACGTGTTACT", "relative binding free energy": -0.09},
      {"sequence": "TTACGCACGTGGTGGT", "relative binding free energy": -0.22},
      {"sequence": "CAGGTCACGTGGTGGG", "relative binding free energy": -0.01},
      {"sequence": "ATGTTCACGTGAGCGG", "relative binding free energy": 0.4},
      {"sequence": "GGAGTCACGTGTGTTC", "relative binding free energy": 0.18},
      {"sequence": "CTATCCACGTGTGGGT", "relative binding free energy": 0},
      {"sequence": "TATTGCACGTGAGTTT", "relative binding free energy": 0.29},
      {"sequence": "GCTTTCACGTGTTAGT", "relative binding free energy": 0.29},
      {"sequence": "TAAATCACGTGCGTTT", "relative binding free energy": 0.09},
      {"sequence": "TTATACACGTGAGGAT", "relative binding free energy": 0.22},
      {"sequence": "ATAGACACGTGGGCTG", "relative binding free energy": -0.18},
      {"sequence": "TCAAGCACGTGGTTTA", "relative binding free energy": -0.12},
      {"sequence": "GGTTGCACGTGAGGTA", "relative binding free energy": 0.34},
      {"sequence": "TTTCTCACGTGTATAG", "relative binding free energy": 0.34},
      {"sequence": "CGGATCACGTGTAGTA", "relative binding free energy": 0.29},
      {"sequence": "CGGAGCACGTGGGCGG", "relative binding free energy": -0.25},
      {"sequence": "AACGTCACGTGTAGTT", "relative binding free energy": 0.17},
      {"sequence": "GAGTACACGTGTGTAG", "relative binding free energy": 0.13},
      {"sequence": "TAGTCCACGTGTAGGA", "relative binding free energy": 0.1},
      {"sequence": "AATAGCACGTGGGGAT", "relative binding free energy": -0.09},
      {"sequence": "TGGGGCACGTGGTTGT", "relative binding free energy": -0.14},
      {"sequence": "ATTCACACGTGTTGAT", "relative binding free energy": 0.03},
      {"sequence": "GAGTACACGTGGTTCG", "relative binding free energy": 0.13},
      {"sequence": "ATGGTCACGTGGCGGA", "relative binding free energy": 0.03},
      {"sequence": "TATTACACGTGGCGAG", "relative binding free energy": 0.08},
      {"sequence": "AGATACACGTGCGGTG", "relative binding free energy": -0.03},
      {"sequence": "TCAAACACGTGGGTGT", "relative binding free energy": -0.15},
      {"sequence": "TTTTTCACGTGATGTT", "relative binding free energy": 0.42},
      {"sequence": "TCGGACACGTGGTTGC", "relative binding free energy": 0.1},
      {"sequence": "TTTGTCACGTGGCGCA", "relative binding free energy": 0.05},
      {"sequence": "TGCTTCACGTGGTGTT", "relative binding free energy": 0.16},
      {"sequence": "AGTCTCACGTGGGCGA", "relative binding free energy": 0.13},
      {"sequence": "CGGTTCACGTGAAGCG", "relative binding free energy": 0.45},
      {"sequence": "ATTTGCACGTGATTAA", "relative binding free energy": 0.08},
      {"sequence": "TTACTCACGTGAATTG", "relative binding free energy": 0.4},
      {"sequence": "CTAGGCACGTGGCGTG", "relative binding free energy": -0.28},
      {"sequence": "TGTTACACGTGAGAAG", "relative binding free energy": 0.2},
      {"sequence": "CGGGTCACGTGTTTGA", "relative binding free energy": 0},
      {"sequence": "GTGCTCACGTGGGTGC", "relative binding free energy": -0.02},
      {"sequence": "TTATTCACGTGAAAAA", "relative binding free energy": 0.38},
      {"sequence": "GTACTCACGTGGTTTT", "relative binding free energy": 0.26},
      {"sequence": "ATGTTCACGTGCGGCA", "relative binding free energy": 0.19},
      {"sequence": "ATTGGCACGTGACAGT", "relative binding free energy": -0.05},
      {"sequence": "TAACTCACGTGAGGGG", "relative binding free energy": 0.34},
      {"sequence": "GTAAGCACGTGGAGGA", "relative binding free energy": 0.04},
      {"sequence": "TTGCGCACGTGAGAGT", "relative binding free energy": 0.17},
      {"sequence": "CTGTACACGTGGGGCG", "relative binding free energy": 0.01},
      {"sequence": "GATAGCACGTGGGAAT", "relative binding free energy": 0.04},
      {"sequence": "TTGGTCACGTGATGTG", "relative binding free energy": 0.26},
      {"sequence": "GTCGGCACGTGATGTA", "relative binding free energy": 0.07},
      {"sequence": "TTGAGCACGTGGTGAC", "relative binding free energy": -0.02},
      {"sequence": "TTATACACGTGTTTCG", "relative binding free energy": -0.02},
      {"sequence": "GGGAGCACGTGACGTT", "relative binding free energy": 0.1},
      {"sequence": "ATGCTCACGTGGTATG", "relative binding free energy": 0.3},
      {"sequence": "GTTTTCACGTGACATA", "relative binding free energy": 0.39},
      {"sequence": "CGTGGCACGTGGGGGC", "relative binding free energy": -0.21},
      {"sequence": "TCTATCACGTGATGGT", "relative binding free energy": 0.27},
      {"sequence": "TAAGTCACGTGTAGAG", "relative binding free energy": 0.05},
      {"sequence": "GGGCGCACGTGTTGGA", "relative binding free energy": 0.02},
      {"sequence": "ACTGGCACGTGTCGGT", "relative binding free energy": 0.02},
      {"sequence": "GTGATCACGTGTTTGT", "relative binding free energy": 0.16},
      {"sequence": "CGCGTCACGTGTTGTT", "relative binding free energy": 0.09},
      {"sequence": "GATTGCACGTGAGTAT", "relative binding free energy": 0.28},
      {"sequence": "ATGATCACGTGTATGG", "relative binding free energy": 0.2},
      {"sequence": "TGATTCACGTGAATGA", "relative binding free energy": 0.58},
      {"sequence": "CTGATCACGTGTTTGA", "relative binding free energy": 0.01},
      {"sequence": "TGTCACACGTGGGGTT", "relative binding free energy": -0.09},
      {"sequence": "CGTGTCACGTGGTTGA", "relative binding free energy": -0.04},
      {"sequence": "ATTGGCACGTGTAGAT", "relative binding free energy": -0.05},
      {"sequence": "CTTAACACGTGTGGTA", "relative binding free energy": 0.01},
      {"sequence": "TTTTTCACGTGTGTGT", "relative binding free energy": 0.32},
      {"sequence": "ACGGACACGTGGCGGG", "relative binding free energy": 0.01},
      {"sequence": "ATTTGCACGTGTACGA", "relative binding free energy": 0.13},
      {"sequence": "AAAGGCACGTGGATAG", "relative binding free energy": -0.14},
      {"sequence": "AATTACACGTGATCTT", "relative binding free energy": 0.26},
      {"sequence": "TTCGTCACGTGGAGTG", "relative binding free energy": 0.11},
      {"sequence": "TATTTCACGTGCAGTG", "relative binding free energy": 0.14},
      {"sequence": "AGGAACACGTGGGGGG", "relative binding free energy": -0.04},
      {"sequence": "TTACGCACGTGTCTGT", "relative binding free energy": -0.04},
      {"sequence": "GGGGACACGTGGCCGT", "relative binding free energy": -0.09},
      {"sequence": "GTAGTCACGTGGAGTG", "relative binding free energy": 0.23},
      {"sequence": "TGGCGCACGTGGACGG", "relative binding free energy": -0.07},
      {"sequence": "TCGAACACGTGGGTGT", "relative binding free energy": -0.14},
      {"sequence": "AAATACACGTGGTAGG", "relative binding free energy": 0.05},
      {"sequence": "TACGTCACGTGATGGG", "relative binding free energy": 0.06},
      {"sequence": "AGGGGCACGTGCTAAT", "relative binding free energy": -0.15},
      {"sequence": "AGGCCCACGTGGGGGT", "relative binding free energy": -0.23},
      {"sequence": "TAGTTCACGTGCGGTG", "relative binding free energy": 0.11},
      {"sequence": "GGCTTCACGTGATGAG", "relative binding free energy": 0.33},
      {"sequence": "GTATGCACGTGTGAAG", "relative binding free energy": 0.16},
      {"sequence": "TATCACACGTGTGTGC", "relative binding free energy": 0.18},
      {"sequence": "TAGTGCACGTGTGCAG", "relative binding free energy": -0.15},
      {"sequence": "GTATACACGTGGATTG", "relative binding free energy": 0.11},
      {"sequence": "GGTGACACGTGATTAT", "relative binding free energy": 0.12}
    ]}
  ]
}
